# Laboratory results as given in the supplement of paper PMC4466236.
# In all, about 33,000 sequences were measured (“E-score (dimensionless, -0.5 to 0.5)”: median about -0.058, highest 2% from about 0.35 on). This is one part of the list.
# Test system: MvaT
# Assay: PBM 8-mer E-score (mean of HK and ME arrays) (E-score (dimensionless, -0.5 to 0.5)); higher = stronger relative binding preference; most listed sequences are background and not binding sites
# Outline: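 Reported values are rank-based E-scores, taken as the mean of two universal arrays and parsed with a custom script. Each 8-mer score falls between -0.5 and 0.5. The arrays, ME and HK, were double-stranded 60-mers with a constant 25-mer primer region and a variable 35-mer region covering all 8-mers. They were probed, by an earlier protocol, with full-length P. aeruginosa MvaT carrying an N-terminal glutathione S-transferase fusion.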
row,Sequence,PBM 8-mer E-score
1,CGCGCAGC,-0.342
2,CCTATTCG,-0.182
3,AGAACGAG,-0.213
4,TCCAGGCA,-0.215
5,CGATGTCA,-0.0694
6,AACGCTAG,-0.165
7,CCATCATC,-0.162
8,ACGTCTCT,-0.162
9,CGTCCAAC,-0.205
10,CTAGGCTC,-0.237
11,ACCGCGTG,-0.176
12,GCTCACAA,-0.0424
13,ATATCAAC,0.338
14,CAGCATGA,-0.0677
15,AAATATCT,0.277
16,ACCGGGTA,-0.126
17,AAGACACA,0.0387
18,GTCCCGAA,-0.0191
19,ATAGTATG,0.21
20,ATAACCTC,0.166
21,CAGTGTAG,0.0703
22,ACTTACGA,0.28

row,Sequence,PBM 8-mer E-score
1,AGGGTGGA,-0.109
2,GGAACTAC,-0.0248
3,CGGGAAGC,-0.143
4,GAAAAACA,0.0375
5,CCCTGGCA,-0.134
6,TAGGAGGA,-0.23
7,ACCTCAAA,-0.00608
8,CACCCGCC,-0.256
9,AACACCCC,-0.192
10,CTTACGGC,-0.205
11,AAACCGGA,-0.0734
12,CCGTCCTC,-0.24
13,AACCTTTA,0.192
14,GCTTTGCA,0.00198
15,CTGGCGCA,-0.062
16,GACGAGTA,0.0969
17,AGAGTTAT,0.262
18,GACACAGC,-0.219
19,CCCCCGCC,-0.384
20,CCAAGTAA,0.155
21,GTGCCCAC,-0.127
22,CTTTTAGA,0.0225

row,Sequence,PBM 8-mer E-score
1,CCTCTCTA,-0.0699
2,CTCTTGTA,0.119
3,GGCACGGA,-0.224
4,CTCCATAC,-0.0527
5,ACACTAGG,0.0577
6,GACGCTTA,-0.00715
7,GCGCGTGA,-0.221
8,AAAACCAC,0.037
9,GGGTACAC,-0.0872
10,CCCAAGCA,-0.173
11,CATACAGC,-0.146
12,GAAGCTCC,-0.307
13,AGTCGTAA,0.078
14,GCCACGGC,-0.266
15,GGGAGCAA,-0.119
16,GCTCCAGC,-0.299
17,CAATACTC,0.106
18,ATGAGCTC,-0.23
19,CGATGGGC,-0.122
20,CTCTGTTC,-0.0179
21,CTAGAAAA,0.134
22,CACGCGGC,-0.198

row,Sequence,PBM 8-mer E-score
1,GGTAAAAA,0.186
2,GCTAAAGA,0.0223
3,TCTGATAA,0.24
4,TATCCAAA,0.1
5,AAGGACAC,-0.163
6,ACTGTCGC,-0.0147
7,GTGCCTCA,-0.193
8,GGTGGAAA,-0.0874
9,CACAAAGA,0.107
10,GGCTTCGA,-0.221
11,ACGTAGAT,0.107
12,GATTCCAC,-0.0141
13,AGGACCAC,-0.173
14,GTCCTTTA,-0.0109
15,GGCGGGAC,-0.191
16,ACCTCGTC,-0.146
17,CGCGCCAG,-0.104
18,AAAGATTC,0.0797
19,AAGGTGAC,-0.136
20,GTCGCAAC,0.0269
